# Data reported in paper PMC7819943, “Rice protein-binding microarrays: a tool to detect cis-acting elements near promoter regions in rice”.
# The list shows a part of the results.
# Target: T1, OsWOX13 (Oryza sativa, UniProt Q5QMM3 1-267)
# T1 sequence: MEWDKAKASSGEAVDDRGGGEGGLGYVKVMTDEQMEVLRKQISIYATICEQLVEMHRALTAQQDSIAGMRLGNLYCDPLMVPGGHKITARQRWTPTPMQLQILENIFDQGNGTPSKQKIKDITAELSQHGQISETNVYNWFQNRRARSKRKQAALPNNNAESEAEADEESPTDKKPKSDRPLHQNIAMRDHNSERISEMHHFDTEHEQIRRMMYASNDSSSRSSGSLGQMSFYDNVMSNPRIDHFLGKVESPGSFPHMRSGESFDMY
# Assay: protein-binding microarray (RPBM); PBS, 2% BSA, 51.3 ng/ul salmon testes DNA, 50 uM zinc acetate, 200 nM TF, 25 C, 1 h; high values mean tight binding
# Conditions: protein: recombinant; tags: N-terminal polyhistidine and DsRed monomer fusion (pET32a); label: CyDye5-dUTP incorporated in the synthesized complementary strand; 3' TTTTT single-stranded linker to array surface; dsDNA, one strand shown
# Procedure, shortened: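 For the binding signal, per-feature fluorescence intensity was read in arbitrary units on an Axon 4000B scanner. Before scanning, a 2% BSA-blocked custom Agilent array made double-stranded with Cy5-dUTP was washed after 1 h at 25 °C with 200 nM protein and 50 µM zinc acetate. The proteins were Ni–NTA-purified transcription factors with N-terminal polyhistidine and DsRed fusions, expressed in E. coli BL21-CodonPlus.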
row,Sequence,binding signal
1,GCTTCAGCAAGTAATTAAATTATTGGCATTTCATCCATGTCGGAGTCACCTAGTGCAG,4820 fluorescence intensity (a.u.)
2,AAAATTTTGACATGTCAAAATTTAGTAAAGTTTTGTTTTGCGGAGTCACCTAGTGCAG,8110 fluorescence intensity (a.u.)
3,TTAATTAAGTCAATAGATTATGTAATAAGTGGATGTAGTTCGGAGTCACCTAGTGCAG,24600 fluorescence intensity (a.u.)
4,AAGCCCAATCAAATCAAGCTGCCTCACTGAAAGTCTGAAACGGAGTCACCTAGTGCAG,4290 fluorescence intensity (a.u.)
5,TTCTAATCAAAATAGTTGGGCTCGTTGCTACCTCTATTTGCGGAGTCACCTAGTGCAG,3920 fluorescence intensity (a.u.)
6,GTCAAAGGATAATTATCTAAACTATCGAGGAGACATTTACCGGAGTCACCTAGTGCAG,6510 fluorescence intensity (a.u.)
7,AATCTTTTAAGCTTAATTATGTCATGATCTGACAATGTGGCGGAGTCACCTAGTGCAG,10200 fluorescence intensity (a.u.)
8,ATTAATCGCTAATTAGGATAATTAATCACTAATTAGTATTCGGAGTCACCTAGTGCAG,43700 fluorescence intensity (a.u.)
9,ATAAACATAATTATTGAAAGCCGTATGAGTAGTTTCTATACGGAGTCACCTAGTGCAG,26400 fluorescence intensity (a.u.)
10,TTCCGAATTTTAATTAATCTTGTATTGGATTCTTATATGGCGGAGTCACCTAGTGCAG,7360 fluorescence intensity (a.u.)
11,AGGAACATGATGATGATGATCGCATCATCAACCTCAAGGGCGGAGTCACCTAGTGCAG,4170 fluorescence intensity (a.u.)
12,CAATCTGATTATTTTCTAATTGCATACTCTCTAAATTCGCCGGAGTCACCTAGTGCAG,39900 fluorescence intensity (a.u.)
13,TCACTATTAACTTCTAATCAGTTCAGCCGTCTTTGATCGCCGGAGTCACCTAGTGCAG,11900 fluorescence intensity (a.u.)
14,AGATAAACAGAAACTGAACAAGAGTTTGTCTTCTACCCTGCGGAGTCACCTAGTGCAG,5780 fluorescence intensity (a.u.)
15,CGATCAATTAATCAAACTTTTCATCGCCACGCCTCACGCACGGAGTCACCTAGTGCAG,12600 fluorescence intensity (a.u.)
16,TTTGCTCATCCTTTCCATTATCATTGCGACGTACTAATTTCGGAGTCACCTAGTGCAG,3270 fluorescence intensity (a.u.)
17,ACCAAAATTTAAAATTTCAACCTTAAATTCAGAGTTGATTCGGAGTCACCTAGTGCAG,8290 fluorescence intensity (a.u.)
18,GGAAAGATTTTAATCAAAAGTGTTTTGGAATGTGACAGTGCGGAGTCACCTAGTGCAG,4240 fluorescence intensity (a.u.)
19,ATTACGTATTATGCGACTTGATTTATTAAAGGTTTTAAGCCGGAGTCACCTAGTGCAG,5340 fluorescence intensity (a.u.)
20,GTAATTACACTGTAACTATAGTGTAACTTGTATGTAACTTCGGAGTCACCTAGTGCAG,5000 fluorescence intensity (a.u.)
21,GCTGTGCGTAATTAGATCATGATAAGCTTGATCATTCTTGCGGAGTCACCTAGTGCAG,7470 fluorescence intensity (a.u.)
22,GAAACAAATTACGGCCCATTTATATATGGATATGGGCCGGCGGAGTCACCTAGTGCAG,9880 fluorescence intensity (a.u.)
23,ACAGATTGCGTGTAAATTACGAGACGAATCTTTTAAACCTCGGAGTCACCTAGTGCAG,21100 fluorescence intensity (a.u.)
